Laboratory results from publication PMC4336329 (PLoS ONE, 2015).
Out of some 310,000 compounds screened, about 14,000 (4.5%) showed an effect of 50% or more. The effect is printed as a negative number. The list shows a part of the results.

target: human ether-à-go-go-related gene (hERG) potassium channel (human, UniProt Q12809); experiment: primary screen, population patch clamp on CHO cells stably expressing hERG
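Also: peak tail current of the secondary pulse compared with the same well before compound.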

Chain of human ether-à-go-go-related gene (hERG) potassium channel (Q12809 whole entry, looked up): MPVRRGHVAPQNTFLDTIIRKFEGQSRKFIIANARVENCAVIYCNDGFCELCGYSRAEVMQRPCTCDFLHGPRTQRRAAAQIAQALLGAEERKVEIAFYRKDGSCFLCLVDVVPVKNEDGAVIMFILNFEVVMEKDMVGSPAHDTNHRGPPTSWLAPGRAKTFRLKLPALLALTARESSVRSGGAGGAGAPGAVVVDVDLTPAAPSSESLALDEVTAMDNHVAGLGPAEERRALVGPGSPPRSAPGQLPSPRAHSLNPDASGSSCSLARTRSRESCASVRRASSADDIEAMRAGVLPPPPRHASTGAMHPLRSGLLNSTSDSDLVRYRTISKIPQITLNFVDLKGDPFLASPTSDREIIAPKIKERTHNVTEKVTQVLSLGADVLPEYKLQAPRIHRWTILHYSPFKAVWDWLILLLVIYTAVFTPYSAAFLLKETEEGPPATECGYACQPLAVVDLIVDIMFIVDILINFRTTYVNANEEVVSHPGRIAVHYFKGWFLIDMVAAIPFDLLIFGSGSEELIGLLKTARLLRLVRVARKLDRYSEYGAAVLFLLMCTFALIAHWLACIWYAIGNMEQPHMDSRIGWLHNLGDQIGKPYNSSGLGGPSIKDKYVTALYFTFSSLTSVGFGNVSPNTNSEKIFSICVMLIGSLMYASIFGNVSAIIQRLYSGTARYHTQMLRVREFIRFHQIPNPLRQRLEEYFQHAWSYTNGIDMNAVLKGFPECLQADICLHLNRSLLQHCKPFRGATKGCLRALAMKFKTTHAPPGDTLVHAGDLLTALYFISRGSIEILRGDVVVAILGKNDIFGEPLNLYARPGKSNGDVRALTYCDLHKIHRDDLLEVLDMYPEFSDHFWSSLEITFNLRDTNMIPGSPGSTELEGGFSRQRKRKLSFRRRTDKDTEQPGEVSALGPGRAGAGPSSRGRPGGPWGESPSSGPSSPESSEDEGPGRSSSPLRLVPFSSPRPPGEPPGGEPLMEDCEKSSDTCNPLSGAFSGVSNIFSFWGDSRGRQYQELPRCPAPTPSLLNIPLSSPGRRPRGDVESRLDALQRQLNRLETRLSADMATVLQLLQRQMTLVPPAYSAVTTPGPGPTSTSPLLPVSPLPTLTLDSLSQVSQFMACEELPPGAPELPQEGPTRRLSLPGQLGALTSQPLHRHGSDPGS

Compared with CCOC(=O)Cn1c(=O)n(C2CCCC2)c(=O)c2ccccc21, O=C(NCCCN1CCN(c2ccccc2F)CC1)C1CCC(=O)N1C1CCCC1 (centres unmarked) is higher in “hERG current change (%, negative = inhibition) at 10uM” value: -13% for the first, -0.824% for the second.

First: CCOc1ccc2c(c1)c(C(C)=O)c(C)n2Cc1ccco1
Second: COc1ccc(N=C2C(=O)N3c4c(cccc42)C(C)=CC3(C)C)cc1
The “hERG current change (%, negative = inhibition) at 10uM” value of the first is higher: 10.3% for the first, 9% for the second.

Going from COc1ccccc1C(c1nnnn1CS(=O)(=O)c1ccc(C)cc1)N1CCSCC1 (centres unmarked) to COc1ccc(N(CC(=O)NCCC2=CCCCC2)S(=O)(=O)c2ccc(C)cc2)cc1, the “hERG current change (%, negative = inhibition) at 10uM” value rises from -4.48% to 13.3%.

First: COc1ccc(N(C(=O)CNC(=O)c2ccco2)C(C(=O)NC2CCCCC2)c2ccco2)cc1 (centres unmarked)
Second: CCC(C(=O)NC1CCCCCC1)c1ccccc1 (centres unmarked)
The “hERG current change (%, negative = inhibition) at 10uM” value of the first is lower: 8.58% for the first, 9.01% for the second.

Compared with NC(=O)c1ccc(NC(=O)CSc2nnc(C3CCCCC3)n2N)cc1, COc1ccc(CC(=O)NCc2nnc(SCC(=O)Nc3ccccc3)n2C)cc1 is higher in “hERG current change (%, negative = inhibition) at 10uM” value: 18% for the first, 21.3% for the second.

Compared with Cn1cc(/C=C(\NC(=O)c2ccccc2)C(=O)N2CCOCC2)c2ccccc21, CN1C(=O)CC(N2CCN(C(c3ccccc3)c3ccccc3)CC2)C1=O (centres unmarked) is higher in “hERG current change (%, negative = inhibition) at 10uM” value: -3.45% for the first, -3.08% for the second.

First: CCN(CC)C(=O)COC(=O)C1=NN(c2cc(C)ccc2C)C(=O)CC1
Second: CCOc1ccc(CCNC(=O)CN(C)S(=O)(=O)c2ccc3c(c2)CCC(=O)N3)cc1OCC
The “hERG current change (%, negative = inhibition) at 10uM” value of the first is higher: 13.1% for the first, -16.7% for the second.

Compared with CCO[C@@H]1OC(C(=O)NCc2ccccc2)=C[C@H](c2ccccc2)[C@H]1CCCO, CCOC(=O)CSc1nnc(CNC(=O)c2cccs2)n1Cc1ccccc1 is lower in “hERG current change (%, negative = inhibition) at 10uM” value: -18.7% for the first, -22.4% for the second.

Compared with Cc1cccc(CC(=O)Nc2cc(C)c3c(=O)oc4ccccc4c3n2)c1, Cc1ccc(NC(=O)CNC(=O)Cc2cccc3ccccc23)nc1 is lower in “hERG current change (%, negative = inhibition) at 10uM” value: 8.36% for the first, -9.09% for the second.

Going from CCOCCCNCc1cc(Br)ccc1OCc1ccccc1 to Cc1cccc(NCc2nc(SCC(=O)Nc3ccccc3)n[nH]2)c1, the “hERG current change (%, negative = inhibition) at 10uM” value rises from -68.1% to 12.9%.

Going from COc1cc(/C=C2\C(=N)N3N=C(S(C)(=O)=O)SC3=NC2=O)ccc1OC(=O)c1ccco1 to CCN(CC)CCOC(=O)c1ccc(N/C=C(/C#N)c2nc(-c3ccc(OC)c(OC)c3)cs2)cc1, the “hERG current change (%, negative = inhibition) at 10uM” value falls from -0.489% to -11.6%.

Compared with C[C@]12CCC(=O)C[C@@H]1CC[C@@H]1[C@@H]2CC[C@]2(C)[C@@H](C(=O)COC(=O)CCC(=O)[O-])CC[C@@H]12.[Na+], CC1CCCCC1NC(=O)COC(=O)/C=C/c1ccc2c(c1)OCO2 (centres unmarked) is lower in “hERG current change (%, negative = inhibition) at 10uM” value: 28.8% for the first, 14.1% for the second.

First: CCOc1ccc(S(=O)(=O)NCCC(=O)N2CCCN(C)CC2)cc1
Second: COc1ccc(CCNC(=O)CNS(=O)(=O)c2ccc(Cl)cc2)cc1
The “hERG current change (%, negative = inhibition) at 10uM” value of the first is higher: 8.05% for the first, -4.3% for the second.

Going from N=C1c2c(cc(=O)n3c2[nH]c2ccccc23)CN1CCN1CCOCC1 to O=C1c2ccccc2C(=O)N1CCc1csc(-c2ccc(F)cc2)n1, the “hERG current change (%, negative = inhibition) at 10uM” value falls from -0.892% to -4.79%.

Going from COc1ccc(Cl)cc1NC(=O)CN(C)C(=O)c1ccc(-n2nc(C)cc2C)cc1 to Cc1ccc(C)n1-c1ccc(N(C)C)cc1, the “hERG current change (%, negative = inhibition) at 10uM” value rises from -35% to 18.3%.

First: CN1C(=O)C(C)(C)c2cc(S(=O)(=O)NCCc3ccc(Cl)cc3)ccc21
Second: Cc1ccc(S(=O)(=O)Nc2ccc(NC(=O)Nc3ccc(F)cc3F)cc2)cc1
The “hERG current change (%, negative = inhibition) at 10uM” value of the first is lower: -25.1% for the first, -6.28% for the second.

First: CCN(CC1CCCN(CCc2cccc(OC)c2)C1)C(=O)C=C(C)C (centres unmarked)
Second: COc1ccc(CC(=O)NCC2CCCN(Cc3ccc(OC)cc3F)C2)cc1 (centres unmarked)
The “hERG current change (%, negative = inhibition) at 10uM” value of the first is lower: -61.1% for the first, -36.9% for the second.

Going from Cc1ccc(/C=C/C(=O)OCC(=O)NC(C)C)o1 to COC(=O)c1ccc(C(=O)OC)c(NC(=S)N2CCCCC2C)c1 (centres unmarked), the “hERG current change (%, negative = inhibition) at 10uM” value falls from 13.7% to -11.1%.

Compared with CCOC(=O)c1c(NC(=S)NC(C)=O)sc(C)c1C, COCCN(C(=S)Nc1ccccc1OC)C(C)c1cccs1 (centres unmarked) is lower in “hERG current change (%, negative = inhibition) at 10uM” value: 12.1% for the first, -5.11% for the second.

First: CC1Cc2ccccc2N1C(=O)CSc1nnc2n1C(C)(C)Cc1ccccc1-2 (centres unmarked)
Second: Cc1cc(/C=C2\Cc3ccccc3C2=O)c(C)n1-c1ccccc1
The “hERG current change (%, negative = inhibition) at 10uM” value of the first is lower: -3.06% for the first, 1.62% for the second.

Going from Oc1cccc(/C=N/Nc2ccc(Cl)nn2)c1O to Cc1cc(Nc2ccc3ccccc3c2)n2ncnc2n1, the “hERG current change (%, negative = inhibition) at 10uM” value falls from 8.72% to -16.9%.

Compared with Cc1ccc(CN2CCN(/N=C\c3cccc([N+](=O)[O-])c3)CC2)cc1, CN(C)c1ccc(/C=C/C(=O)c2ccccc2)cc1[N+](=O)[O-] is higher in “hERG current change (%, negative = inhibition) at 10uM” value: -19.7% for the first, -1.57% for the second.
